Laboratory results published in PubChem BioAssay AID1508642 (National Center for Advancing Translational Sciences (NCATS), 2021).
Hit rate of the full screen: of about 43,000 compounds, about 200 (0.47%) were called active. Inconclusive means that the source gave no clear call. Such entries were picked first, then a sample of the others. Calls come from the whole dose curve; as a rule, active = well fitted cell-killing curve with a large enough effect; inconclusive = small, poorly fitted or top-dose-only effect, or effect the other way; inactive = flat fitted curve, though single readings scatter. Where the call is inconclusive, the potency comes from a doubtful curve fit.

assay: Cell viability qHTS assay in S16 Pmp22-F2sN cells; conditions: S16 Pmp22-F2sN Schwann cells viability, CellTiter-Glo, 24 h; activity change, negative = cytotoxicity: at 57.5 µM (top of the series); note: nearly all actives have a fitted effect of over 65% in size
Procedure, shortened: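 S16 Pmp22-F2sN Schwann cells (500-1,000/well) in phenol-red-free DMEM with 10% FBS received 23 nL compound by pin tool for 24 h at 37 °C. Viability was then read as CellTiter-Glo luminescence after 15 min at room temperature.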
% is set by controls: 0 for no effect and ±100 for the full control effect; potency is the fitted concentration of half-maximal effect; tags give direction and shape of the fitted curve.

| Structure (SMILES) | activity change, negative = cytotoxicity | Potency |
| --- | --- | --- |
| Cc1cc(C)cc(NC(=O)c2ccc3oc(=O)c(S(=O)(=O)c4ccc(F)cc4)cc3c2)c1 | inactive: -15% |  |
| Cc1ccc2oc(-c3ccc(Cl)cc3)c(O)c(=O)c2c1 |  | inconclusive: 39.8 µM [cytotoxic, single point] |
| COc1ccc(C(=O)Nc2nnc(SCc3cc(=O)c4cccc(F)c4[nH]3)s2)cc1 |  | inconclusive: 31.6 µM [cytotoxic, single point] |
| CCCN(C(=O)Cc1nc(-c2ccc(OC)cc2)no1)c1ccccc1C | inactive: 2.26% |  |
| CCN(CC)c1nc2c(S(=O)(=O)c3ccccc3)nnn2c2ccc(Cl)cc12 |  | inconclusive: 28.2 µM [cytotoxic, single point] |
| CCOc1ccc(CCNC(=O)c2c(C)oc3ncn(CC(C)C)c(=O)c23)cc1 | inactive: 1.99% |  |
| COc1ccccc1CN1CCC(CNS(=O)(=O)c2cc(-c3onc(C)c3C)ccc2OC)CC1 |  | inconclusive: 31.6 µM [cytotoxic, single point] |
| N#Cc1nc(-c2ccc(COc3ccccc3)o2)oc1NCc1cccnc1 |  | inconclusive: 39.8 µM [cytotoxic, single point] |
| COc1ccc(NC(=O)CN2C(=O)C(C)(C)c3ccccc32)cc1Cl |  | inconclusive: 39.8 µM [cytotoxic, partial curve, poor fit] |
| Cc1ccc(-c2nnc(Nc3ccc(Br)cc3)c3ccccc23)cc1S(=O)(=O)NCC1CCCO1 (stereo not drawn) |  | inconclusive: 14.1 µM [cytotoxic, partial curve, poor fit] |
| Cc1ccc(-n2c(=O)c3ccc(C(=O)NCc4ccccc4Cl)cc3n(CC(=O)Nc3cccc(Cl)c3)c2=O)cc1 |  | inconclusive: 8.91 µM [rising, partial curve, poor fit] |
| CCCCCNC(=O)c1ccc2c(c1)ncn2-c1cccc(C)c1 |  | inconclusive: 39.8 µM [cytotoxic, single point] |
| Cc1ccccc1Nc1sc(C(=O)c2ccc(F)cc2)c(N)c1C(=O)NCCc1ccccc1 |  | inconclusive: 35.5 µM [cytotoxic, single point] |
| COc1ccc(-n2c(=O)c3c4c(sc3n(CC(=O)N3CCCCC3C)c2=O)CCC4)c(OC)c1 (stereo not drawn) |  | inconclusive: 6.31 µM [rising, partial curve] |
| CCOc1cc(CNC(=O)c2ccc3c(c2)nc2n3CCCCC2)ccc1OC | inactive: 0.982% |  |
| COc1cccc(-c2ccnc3c(-c4ccccc4)c(C)nn23)c1 |  | inconclusive: 8.91 µM [rising, full curve, poor fit] |
| CC(C)(C)C1CCc2nc(NC(=O)COc3ccccc3[N+](=O)[O-])sc2C1 (stereo not drawn) |  | inconclusive: 12.6 µM [rising, partial curve, poor fit] |
| COc1ccc(S(=O)(=O)c2c(SC)nn(CC(=O)Nc3ccc(C)c(Cl)c3)c2N)cc1 |  | inconclusive: 39.8 µM [cytotoxic, single point] |
| O=C(Nc1cccc(C(F)(F)F)c1)c1cc(-c2ccc(Cl)cc2)on1 | inactive: 20.9% |  |
| CC1CCCN(C(=O)c2ccc(CSc3nc4ccncc4n3Cc3ccccc3)cc2)C1 (stereo not drawn) |  | inconclusive: 28.2 µM [cytotoxic, single point] |
| CCc1cc(C(=O)N2CCN(c3ccccc3)CC2)no1 | inactive: -5.89% |  |

| Structure (SMILES) | activity change, negative = cytotoxicity | Potency |
| --- | --- | --- |
| CCN(CC)c1cc(NC2CCCCC2)c2c3c(onc13)-c1ccccc1C2=O |  | inconclusive: 17.8 µM [cytotoxic, partial curve, poor fit] |
| CCCN1CCN(c2ncnc3sc(C(=O)Nc4ccc(OC(F)(F)F)cc4)c(C)c23)CC1 |  | inconclusive: 39.8 µM [cytotoxic, single point] |
| CCCCN(CC)CCCNC(=O)c1ccc2c(c1)N(Cc1ccc(C)cc1)C(=O)c1ccccc1S2 |  | inconclusive: 39.8 µM [cytotoxic, single point] |
| Cc1ccc(S(=O)(=O)c2nnn3c2nc(N(C)Cc2ccccc2)c2cc(Cl)ccc23)cc1C |  | inconclusive: 39.8 µM [cytotoxic, partial curve, poor fit] |
| CCOC(=O)c1c(C)[nH]c(CCC(=O)NCc2cc(Br)ccc2OC)c1C |  | inconclusive: 22.4 µM [cytotoxic, single point] |
| CCN1C(=O)c2ccccc2Sc2ccc(NC(=O)Cc3ccc(OC)c(OC)c3)cc21 |  | inconclusive: 39.8 µM [cytotoxic, single point] |
| O=C(CS(=O)(=O)c1nc(-c2ccc(Cl)cc2)cn1-c1ccccc1)Nc1cccc(Cl)c1 |  | inconclusive: 39.8 µM [cytotoxic, single point] |
| O=C(c1ccc2c(c1)N(Cc1ccccc1F)C(=O)c1ccccc1S2=O)N1CCC(Cc2ccccc2)CC1 (stereo not drawn) |  | inconclusive: 20 µM [cytotoxic, partial curve, poor fit] |
| Cc1ccc2c(CC(=O)Nc3nnc(C(C)C)s3)coc2c1C | inactive: 0.441% |  |
| COc1ccc(OCc2ccc(-c3nc(C#N)c(NCc4ccc(F)cc4)o3)o2)cc1 |  | inconclusive: 39.8 µM [cytotoxic, single point] |
| Cc1cn2c(=O)cc(COC(=O)COc3ccc(C)c(C)c3)nc2s1 |  | inconclusive: 20 µM [rising, single point] |
| Cn1c(C(=O)NCc2ccccc2Cl)cc2sc(Cl)cc21 |  | inconclusive: 25.1 µM [cytotoxic, partial curve] |
| COc1cccc(CNC(=O)Cn2c(=O)cc(C)c3c(C)nn(C)c32)c1OC |  | inconclusive: 7.08 µM [cytotoxic, full curve] |
| COc1cc(NS(=O)(=O)c2cc(Br)cc3c2N(C(C)=O)C(C)C3)cc(OC)c1 (stereo not drawn) |  | inconclusive: 25.1 µM [cytotoxic, single point] |
| Cc1nc(-c2cccc(F)c2)sc1CCNC(=O)Cc1ccc(F)cc1 |  | inconclusive: 0.0282 µM [rising, full curve, poor fit] |
| Cc1ccc(CNC(=O)C2CCCN(c3nc4ccccc4n4cccc34)C2)cc1 (stereo not drawn) |  | inconclusive: 39.8 µM [cytotoxic, single point] |
| Cn1c(SCC(=O)N2CCOCC2)ncc(C(=O)Nc2ccc(F)cc2)c1=O |  | inconclusive: 39.8 µM [cytotoxic, single point] |
| CCc1ccc(NCc2cc3cc4c(cc3n(CC(=O)Nc3ccc(OC)cc3)c2=O)OCO4)cc1 |  | inconclusive: 31.6 µM [cytotoxic, single point] |
| O=C(NCCCN1CCN(c2ccccc2F)CC1)C1COc2ccccc2C1 (stereo not drawn) | inactive: -3.41% |  |
| CCOC(=O)c1cccc(NC(=O)Nc2ccc3c(c2)N(C)C(=O)c2ccccc2S3)c1 |  | inconclusive: 39.8 µM [cytotoxic, partial curve, poor fit] |
| COc1ccccc1CNC(=O)C1CCN(Cc2cc3ccccc3n2Cc2cccc(C)c2)CC1 |  | inconclusive: 31.6 µM [cytotoxic, single point] |

| Structure (SMILES) | activity change, negative = cytotoxicity | Potency |
| --- | --- | --- |
| COc1ccc(NS(=O)(=O)c2ccc3c(c2)CCCN3C(=O)C2CCC2)cc1OC |  | inconclusive: 10 µM [cytotoxic, partial curve] |
| Cc1c(C(=O)Nc2ccccc2Br)oc2ccc(S(=O)(=O)N3CCOCC3)cc12 | inactive: 20.5% |  |
| CCC1CN(C(=O)N2CCC(C(=O)N3CCN(c4ccc(F)cc4)CC3)CC2)c2ccccc2O1 (stereo not drawn) |  | inconclusive: 39.8 µM [cytotoxic, single point] |
| O=S(=O)(c1ccccc1)c1nc(-c2cccs2)oc1N1CCCCC1 | inactive: -18.7% |  |
| O=C(c1ccc(CS(=O)c2ccccc2Cl)o1)N1CCN(c2cccc(C(F)(F)F)c2)CC1 (stereo not drawn) | inactive: -25.7% |  |
| CC(C(=O)NCc1cccc(Br)c1)n1ncn2cccc2c1=O (stereo not drawn) | inactive: 0.138% |  |
| CC1=C(C(=O)Nc2ccc(C)cc2Cl)C2(CCCCC2)OC1=O |  | inconclusive: 39.8 µM [cytotoxic, single point] |
| Cc1ccccc1S(=O)(=O)Cc1ccc(C(=O)NCc2ccccc2Cl)o1 | inactive: -3.07% |  |
| Cc1ccccc1CS(=O)(=O)c1ncc(Cl)c(C(=O)Nc2nnc(C(C)C)s2)n1 |  | inconclusive: 39.8 µM [cytotoxic, single point] |
| CC(C)c1ccc(-c2noc(SCC(=O)N(C)c3ccc(F)cc3)n2)cc1 | inactive: -18.4% |  |
| CCC(=O)OC1=CN(Cc2ccccc2)S(=O)(=O)c2ccccc21 | inactive: 3.33% |  |
| CCC(=O)C1=C(c2ccc(F)cc2)N(C(=O)CC)n2c(nnc2C2CCCCC2)S1 |  | inconclusive: 35.5 µM [cytotoxic, single point] |
| Cn1nc(-c2ccc(C(=O)Nc3ccc(OC(F)(F)F)cc3)cc2)c2ccccc2c1=O |  | inconclusive: 22.4 µM [cytotoxic, single point] |
| CCOc1ccccc1N1CC(c2nc3ccccc3n2CCOc2ccccc2OC)CC1=O (stereo not drawn) |  | inconclusive: 35.5 µM [cytotoxic, single point] |
| Cc1ccc(-n2c(SCc3ccccc3C)nc3[nH]ncc3c2=O)cc1C |  | inconclusive: 39.8 µM [cytotoxic, single point] |
| CN(C)c1ccc(NC(=O)CSC2=Nc3ccccc3C3=NC(CC(=O)NCc4ccc5c(c4)OCO5)C(=O)N23)cc1 (stereo not drawn) |  | inconclusive: 22.4 µM [cytotoxic, partial curve, poor fit] |
| Oc1ccc(NCc2ccccc2OCc2ccccc2Cl)cc1 |  | active: 20 µM |
| Cc1cc(Nc2ccc(Cl)cc2)n2cnnc2n1 | inactive: -4.77% |  |
| COc1nnc(-c2ccc(N3CCCCC3)c(NC(=O)c3ccccc3)c2)c2ccccc12 |  | inconclusive: 4.47 µM [rising, full curve] |
| COc1ccc(CNC(=O)c2ccc3c(c2)N(Cc2ccccc2)CCS3)cc1 | inactive: 5.79% |  |
| CCCCCOc1ccc(NC(=O)Cn2c(-c3cncs3)nc3ccccc32)cc1 |  | inconclusive: 28.2 µM [cytotoxic, partial curve, poor fit] |
